Experimental data: PubChem BioAssay AID686978 (National Center for Advancing Translational Sciences (NCATS), 2013)
In all, about 420,000 compounds went through this assay and about 64,000 (15%) were called active. The inconclusive results got no clear call from the source; some entries with a clear call stand among them for comparison. Calls come from the whole dose curve; as a rule, active = well fitted inhibition curve with a large enough effect; inconclusive = small, poorly fitted or top-dose-only effect; inactive = flat fitted curve, though single readings scatter. No potency is given beside an inconclusive call; the fits are too rough.

Assay: qHTS for Inhibitors of human tyrosyl-DNA phosphodiesterase 1 (TDP1): qHTS in cells in absence of CPT; note: nearly all actives have a fitted effect of over 55% in size
Conditions: DT40 Tdp1-/- hTDP1 cells, no CPT, ATP luminescence, 48 h; activity change, negative = growth inhibition: at 46.2 µM (top of the series)
Procedure, shortened: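 Chicken DT40 Tdp1-/- cells stably complemented with human TDP1 were seeded at 400 cells/well with DMSO in place of 20 nM camptothecin. After compound pinning, cells grew at least 48 hr at 37 °C; viability read by CellTiter-Glo luminescence.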
% is set by controls: 0 for no effect and ±100 for the full control effect; potency is the fitted concentration of half-maximal effect; tags give direction and shape of the fitted curve.

Row | Compound | activity change, negative = growth inhibition | Potency
1 | O=C(c1ccc([N+](=O)[O-])cc1)N(C1=NCCCCS1)c1ccccc1 | inactive: -4.8% | –
2 | O=C1NC2(CCCCC2)C(=O)N1CCS(=O)(=O)Oc1ccc(Br)cc1 | – | inconclusive [inhibitor, single point]
3 | COc1ccc(/C=C/CN2CCC(C(=O)NC(c3ccc(F)cc3)c3ccc4ccccc4n3)CC2)cc1 (stereo not given) | – | active: 20.6 µM
4 | O=C(CCc1nc2ccccc2c(=O)[nH]1)Nc1ccc(Cl)c(Cl)c1 | – | inconclusive [inhibitor, single point]
5 | C=CCSc1nsc(NC(=O)Nc2cccc(C(C)=O)c2)n1 | – | inconclusive [inhibitor, single point]
6 | CC1CC(C)CN(C(=O)c2cc3cc(Br)cc(Br)c3o2)C1 (stereo not given) | – | inconclusive [inhibitor, single point]
7 | CCOC(=O)C1CCN(C(=O)COc2ccc(S(=O)(=O)N3CCCC3)cc2C)CC1 | inconclusive: -30.4% [inhibitor] | –
8 | Cc1cc(C)c(Cn2c3ccccc3c3cnn(CC(=O)NC4CCC(C)CC4)c(=O)c32)c(C)c1 (stereo not given) | – | inconclusive [inhibitor, partial curve, poor fit]
9 | O=C(Nc1cnn(Cc2ccc(Cl)c(Cl)c2)c1)C12CC3CC(CC(C3)C1)C2 | – | inconclusive [inhibitor, single point]
10 | O=C1CN(C(=O)c2ccccc2)C(c2ccccc2)c2cc(Cl)ccc2N1 (stereo not given) | – | inconclusive [inhibitor, single point]
11 | Cc1ccccc1NC(=O)c1ccc(F)c(S(=O)(=O)N(C)Cc2ccccc2)c1 | – | active: 20.6 µM
12 | Cc1nn(CC(=O)Nc2cccnc2)c(=O)c2ccccc12 | inactive: -0.92% | –
13 | Cc1cc(C)cc(C(=O)NC(CC(N)=O)c2ccc(NC3CCCC3)c([N+](=O)[O-])c2)c1 (stereo not given) | inactive: -10.3% | –
14 | CCN(CC)CCNC(=S)Nc1ccc(F)cc1 | inactive: -1.93% | –
15 | Cc1cn(CC(=O)NCc2ccccn2)c(=O)[nH]c1=O | inactive: 12.6% | –
16 | COc1ccccc1CNC(=O)CCCn1c(=O)c2ccccc2n(CC(=O)NC2CCCC2)c1=O | – | inconclusive [inhibitor, single point]
17 | COc1cc(NC(=O)c2ccccc2Cl)c(OC)cc1NC(=O)CN1CCCCC1 | inactive: 6.35% | –
18 | COc1cc(C2NC(=O)NC(O)(C(F)(F)F)C2C(=O)c2ccc(Cl)cc2)ccc1O (stereo not given) | inconclusive: -32.6% [inhibitor] | –
19 | CCCN1CNc2c(c(=O)[nH]c(=S)n2CCc2ccc(OCC)c(OCC)c2)C1 | – | inconclusive [inhibitor, single point]
20 | Cc1sc2ncn(CC(=O)NC3CCCCC3)c(=O)c2c1C | inconclusive: -30.4% [inhibitor] | –
